Assay results taken from PubChem BioAssay AID902 (National Center for Advancing Translational Sciences (NCATS), 2007).
Screen size: about 130,000 compounds; about 1,900 (1.5%) were called active. This list was built around the results that the source calls inconclusive (neither active nor inactive); the mix of calls is not that of the screen. The call rests on the fitted dose curve; in most records, active means well fitted cell-killing curve with a large enough effect; inconclusive means small, poorly fitted or top-dose-only effect; inactive means no such curve, though single readings can be large or run the other way. Where the call is inconclusive, the potency comes from a doubtful curve fit.

Test: qHTS Screen for Compounds that Selectively Target Cancer Cells with p53 Mutations: Cytotoxicity of p53ts Cells at the Nonpermissive Temperature; further: nearly all actives have a fitted effect of over 55% in size
Settings: H1299-p53A138V viability at 39C, ATP luminescence, 24 h; activity change, negative = cell killing: at 46.1 µM (top of the series)
On the % scale 0 is the no-effect control and ±100 the full control effect; potency means the concentration at half of the fitted maximal effect; tags describe the fitted curve by direction and shape.

Structure (SMILES) | activity change, negative = cell killing | Potency
Cc1ccccc1C(=O)Nc1cccc(-c2cn3cccnc3n2)c1 | inactive: -25.5% | 
OCCN(CCO)c1ccc(C(c2ccc(Cl)cc2)c2ccc(N(CCO)CCO)cc2Cl)c(Cl)c1 |  | inconclusive: 17.8 µM [cytotoxic, single point]
Cc1ccc(Oc2nc3c(c(=O)n(Cc4ccccc4Cl)c(=O)n3C)n2C)cc1C |  | inconclusive: 12.6 µM [cytotoxic, single point]
CC1CCc2nc(NC(=O)c3ccco3)sc2C1 (stereo not drawn) |  | active: 2.51 µM
COc1ccc(NC(=O)N(C(C)C)C2CCN(C(C)=O)CC2)c(OC)c1 |  | inconclusive: 3.16 µM [cytotoxic, partial curve]
CN(C)S(=O)(=O)N1CCC(n2cnc3cccnc32)CC1 | inactive: -11.1% | 
Nc1c(S(=O)(=O)c2cccs2)c2nc3ccccc3nc2n1/N=C/c1cccc(O)c1 |  | inconclusive: 25.1 µM [cytotoxic, single point]
COc1cc(OC)c(NC(=O)c2cc3c(s2)-c2ccc(Cl)cc2SC3)cc1Cl |  | inconclusive: 2.51 µM [cytotoxic, full curve]
Cc1cc(NC(=O)C2CCC(CNS(=O)(=O)c3ccc(Br)s3)CC2)ccc1Br (stereo not drawn) |  | inconclusive: 10 µM [cytotoxic, partial curve]
COc1ccc(C)cc1S(=O)(=O)Nc1cccc(-c2ccc(N3CCC(C)CC3)nn2)c1 |  | inconclusive: 15.8 µM [cytotoxic, partial curve]
Cc1ccccc1S(=O)(=O)Nc1cccnc1 |  | inconclusive: 3.98 µM [cytotoxic, single point]
Cc1ccc(NC(=O)c2nc(S(=O)(=O)Cc3cccc(C)c3)ncc2Cl)cc1 |  | active: 10 µM
CC1CCC/C(=C\Nc2ccccc2C(=O)O)C1=O (stereo not drawn) | inactive: 5.76% | 
CN(C(=O)CSc1nc2ccc(NC(=O)COc3ccc(F)cc3)cc2s1)c1ccccc1 |  | inconclusive: 0.251 µM [cytotoxic, full curve, poor fit]
CC(C)c1ccc2c(c1)CC[C@H]1[C@@](C)(CN)CCC[C@@]21C | inactive: 8.32% [at 9.22 µM] | 
Cc1c(Cl)cccc1NC(=O)c1cc(-c2cccs2)on1 | inactive: -8.77% | 
COc1cccc(/C=N/NC(=O)CNC(=O)c2ccc3c(c2)OCCO3)c1O |  | inconclusive: 12.6 µM [cytotoxic, partial curve]
CC[C@@H](CO)Nc1nc(NCc2ccccc2)c2ncn(C(C)C)c2n1 | inactive: 13.8% | 
CCCC(=O)Nc1cccc(-c2nc3cc(C)c(C)cc3o2)c1 |  | inconclusive: 12.6 µM [cytotoxic, partial curve]
Cc1cc(C)cc(NS(=O)(=O)c2ccc(-c3cc(C)no3)s2)c1 |  | inconclusive: 7.94 µM [cytotoxic, partial curve]
O=[N+]([O-])c1ccc([C@@H](Nc2ccccc2)c2ccc3cccnc3c2O)cc1 |  | inconclusive: 2.51 µM [cytotoxic, partial curve]
CC(=O)NCCn1c(C)cc2ccccc21 |  | inconclusive: 12.6 µM [cytotoxic, single point]

Structure (SMILES) | activity change, negative = cell killing | Potency
COc1cccc(N2C(=O)N(c3ccccc3)C3CS(=O)(=O)CC32)c1 (stereo not drawn) | inactive: -0.684% | 
CCn1c(SCC(=O)c2ccc(C)cc2)nnc1-c1ccoc1C | inactive: -15.8% | 
O=C(Nc1ccc2nc(-c3ccc(Br)o3)[nH]c2c1)c1ccco1 |  | inconclusive: 12.6 µM [cytotoxic, partial curve]
CC(C)c1ccc(Nc2cc(C(=O)NCCCN(C)Cc3ccccc3)c3ccccc3n2)cc1 |  | inconclusive: 31.6 µM [cytotoxic, single point]
CC(=O)N1CCN(C(=O)C(=O)Nc2c3c(nn2-c2ccc(Cl)cc2)CSC3)CC1 |  | inconclusive: 0.005 µM [cytotoxic, full curve, poor fit]
COC(=O)c1ccc(C2c3c(-c4ccc(Br)cc4)n[nH]c3C(=O)N2c2ccc(Cl)cc2)cc1 (stereo not drawn) |  | inconclusive: 31.6 µM [cytotoxic, single point]
Nc1ccc2oc(-c3cccs3)nc2c1 |  | inconclusive: 31.6 µM [cytotoxic, single point]
COc1cccc(-c2cc(C(=O)N3CCCCCC3)no2)c1 |  | active: 10 µM
O=C(O)[C@@H]1[C@@H]2O[C@H]([C@@H](Br)[C@H]2Br)[C@H]1C(=O)O | inactive: -12.8% [at 9.22 µM] | 
CC(C)CC(=O)Nc1nnc(S(=O)(=O)N(C)c2ccc(Cl)cc2)s1 |  | inconclusive: 0.251 µM [cytotoxic, full curve, poor fit]
N#Cc1ccc(OC(=O)c2ccc(N=C(N)N)cc2)cc1 | inactive: 9.86% [at 9.22 µM] | 
CCN(CC)c1ccc(C(=O)Nc2cccc(F)c2)cc1 |  | inconclusive: 10 µM [cytotoxic, partial curve]
CCN(CC)CCCn1c(-c2ccccc2)nc2c(NCCOC)nc(C)nc21 | inactive: -2.86% | 
Cc1cccc2sc(N(Cc3cccnc3)C(=O)CCS(=O)(=O)c3ccccc3)nc12 |  | inconclusive: 25.1 µM [cytotoxic, single point]
Cc1cc(C)c2ccc(N)nc2c1O |  | inconclusive: 3.98 µM [cytotoxic, full curve, poor fit]
COc1ccc(CNC(=O)c2cnn(-c3ccc(OC)cc3)c2C2CCN(C(=O)OC(C)(C)C)CC2)cc1 |  | inconclusive: 1.58 µM [cytotoxic, full curve, poor fit]
CCN(CC)CCNC(=O)c1sc2nc(C)cc(C)c2c1-n1cccc1 |  | inconclusive: 12.6 µM [cytotoxic, single point]
CCC(=O)Nc1cc(-c2nc3cc(C)cc(C)c3o2)ccc1C |  | inconclusive: 6.31 µM [cytotoxic, partial curve]
Cc1cccc2c1-c1sc(C(=O)Nc3ccccc3C(N)=O)cc1CO2 |  | active: 12.6 µM
CCc1cc2c(cc3c(=O)n(CC(=O)NC4CCC(C)CC4)nc(CC)n32)s1 (stereo not drawn) |  | inconclusive: 0.0447 µM [cytotoxic, full curve, poor fit]
CCn1c(CN2CCCCC2)nc2cc(NC(=O)COc3cc(C)ccc3C(C)C)ccc21 |  | inconclusive: 31.6 µM [cytotoxic, single point]
